Data from article PMC4336329 (PLoS ONE, 2015).
Among all 310,000 compounds or so, about 14,000 (4.5%) showed an effect of 50% or more. Effects have a minus sign here. Some of the results follow.

target: human ether-à-go-go-related gene (hERG) potassium channel (human, UniProt Q12809); assay: primary screen, population patch clamp on CHO cells stably expressing hERG
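Further: peak tail current of the secondary pulse compared with the same well before compound.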

Sequence of human ether-à-go-go-related gene (hERG) potassium channel (Q12809 whole entry, looked up): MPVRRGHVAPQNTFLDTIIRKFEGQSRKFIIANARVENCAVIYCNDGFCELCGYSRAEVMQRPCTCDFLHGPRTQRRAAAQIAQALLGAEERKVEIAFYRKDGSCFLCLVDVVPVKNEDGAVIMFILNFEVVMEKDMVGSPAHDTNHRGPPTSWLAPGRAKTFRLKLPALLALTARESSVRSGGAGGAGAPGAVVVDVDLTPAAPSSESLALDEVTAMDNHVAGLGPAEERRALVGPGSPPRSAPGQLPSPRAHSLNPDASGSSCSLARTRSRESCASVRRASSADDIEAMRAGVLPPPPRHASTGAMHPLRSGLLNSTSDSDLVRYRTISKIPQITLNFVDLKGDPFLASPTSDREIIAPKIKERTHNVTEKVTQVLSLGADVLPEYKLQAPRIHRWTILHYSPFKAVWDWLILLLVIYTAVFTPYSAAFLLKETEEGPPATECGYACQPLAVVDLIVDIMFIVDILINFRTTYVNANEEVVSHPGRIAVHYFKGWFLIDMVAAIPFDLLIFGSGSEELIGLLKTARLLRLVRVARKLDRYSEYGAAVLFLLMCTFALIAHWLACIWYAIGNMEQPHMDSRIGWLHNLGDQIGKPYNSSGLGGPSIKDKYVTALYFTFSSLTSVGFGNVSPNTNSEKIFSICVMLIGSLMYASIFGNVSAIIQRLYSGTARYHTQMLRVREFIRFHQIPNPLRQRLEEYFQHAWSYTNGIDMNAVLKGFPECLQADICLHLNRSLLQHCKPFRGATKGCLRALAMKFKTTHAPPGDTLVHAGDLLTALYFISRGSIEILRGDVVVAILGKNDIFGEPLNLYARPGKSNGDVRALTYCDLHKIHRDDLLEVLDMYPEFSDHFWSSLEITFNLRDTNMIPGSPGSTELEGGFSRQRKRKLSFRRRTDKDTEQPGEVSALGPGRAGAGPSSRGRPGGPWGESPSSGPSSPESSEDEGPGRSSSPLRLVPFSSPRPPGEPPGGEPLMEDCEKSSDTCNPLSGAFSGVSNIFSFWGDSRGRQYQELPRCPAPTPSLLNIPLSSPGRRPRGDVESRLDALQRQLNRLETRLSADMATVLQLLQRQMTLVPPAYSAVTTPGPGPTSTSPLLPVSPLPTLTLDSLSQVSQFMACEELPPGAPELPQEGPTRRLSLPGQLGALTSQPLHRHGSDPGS

Compound	hERG current change (%, negative = inhibition) at 10uM [%]
Cc1nc2c(sc(=S)n2Cc2ccco2)c(=O)n1CC(=O)Nc1ccccc1Cl	5.07
CC(=O)NC(Cc1ccccc1)C(=O)OCC(=O)c1ccccc1 (centres unmarked)	3.64
O=C(NC1CC1)C1=C[C@@H](c2ccccc2)C[C@@H](OCc2ccc(CO)cc2)O1	-38.3
CC1=C(C#N)C(c2ccc(O)cc2)C(C#N)=C(C)N1	13
Cc1cc(NC(=O)CSc2nnc(-c3ccco3)n2C)no1	0.163
O=S(=O)(Nc1c(F)cccc1F)c1ccc(Cl)nc1	50.8
CCOC(=O)Cc1nnc(Nc2cc(C)ccc2C)c2ccccc12	-19.1
COc1ccc(CNc2nc3c(c(=O)n(Cc4ccc(Cl)cc4)c(=O)n3C)n2C)cc1	11
O=C(Cc1ccccc1)NN1C(=O)/C(=C/c2ccccc2C(=O)O)SC1=S	12.4
COc1cc(C2C(C(=O)c3ccco3)=C(O)C(=O)N2CC2CCCO2)ccc1O (centres unmarked)	2.25
CC(C)[C@H](NC(=O)c1ccccc1)C(=O)OCC(=O)NCCc1ccc(F)cc1	-10.9
Nc1nc(-c2ccc(Br)cc2)cc(C(F)(F)F)n1	11.4
CC(C)C(OC(=O)c1nsc(Cl)c1Cl)C(=O)NC(C)(C)C (centres unmarked)	13.3
CCn1nnnc1SCC(=O)Nc1nnc(C(C)C)s1	13.7
O=C(COc1ccc2c3c(c(=O)oc2c1)CCCC3)NCc1cccnc1	-0.966
c1ccc(-c2csc(-c3cccnc3)n2)cc1	-6.12
Clc1ccccc1Nc1nc(-c2ccncc2)nc2ccccc12	7.5
COc1ccc(Cn2ccnc2SCC(=O)NC2CCCCC2)cc1	-2.96
CC1(C)N=C(C(=O)c2ccccc2)N(O)C1(C)O (centres unmarked)	0.936
Cc1[nH]c(=O)[nH]c(=O)c1N(C)C	5.74
COc1ccc(CN2CC(C(=O)NCC3CCCO3)CC2=O)cc1 (centres unmarked)	-7.61
C/C(CC(=O)Nc1cc(C)ccn1)=N\NC(=O)c1ccc(C)cc1	-15.4

Compound	hERG current change (%, negative = inhibition) at 10uM [%]
COc1cc(/C=C/CO)cc(OC)c1OC/C=C(\C)CCC=C(C)C	1.34
COc1cc(OC)c2c(-c3ccccc3)cc(=O)oc2c1C(CCN1CCN(c2ccccc2)CC1)c1ccc(N(C)C)cc1 (centres unmarked)	7.89
CCCCOC(=O)n1c(=O)oc2ccc(S(=O)(=O)N3CCCCC3)cc21	-1.64
Clc1ccccc1-c1nc2ccccc2c2nc3ccccc3n12	-13.7
O=C(NC1CCCC1)C(c1cccnc1)N(Cc1ccccc1F)C(=O)c1csnn1 (centres unmarked)	-15.6
CCCC(=O)N(c1ccc2oc(=O)sc2c1)S(=O)(=O)c1ccccc1	8.84
CCOc1ccc(C(=O)N[C@H](C(=O)Nc2ccccc2OC)C(C)C)cc1	-28.7
Cc1cc(=O)[nH]c(SCCOc2cccc(C(F)(F)F)c2)n1	12.1
FC(F)(F)c1ccc(-n2cn[nH]c2=S)cc1	18.7
Cc1cccc(CN2CCN(C(c3ccccc3)c3ccc(Cl)cc3)CC2)c1.Cl (centres unmarked)	18.5
O=C(NCCC1CC1(Cl)Cl)c1ccc([N+](=O)[O-])cc1 (centres unmarked)	-19
CCN(CC(=O)NC1CCS(=O)(=O)C1)S(=O)(=O)c1cc(Br)ccc1Br (centres unmarked)	-13.7
O=C(N/N=C/c1ccoc1)c1ccccc1O	9.69
O=C(c1ccc2ccccc2c1)C1CCCN(C(=O)c2cccnc2)C1 (centres unmarked)	-8.48
Cc1ccc(S(=O)(=O)N(C)C)cc1NC(=O)c1c(-c2c(F)cccc2Cl)noc1C	-4.27
Cc1c(C(=O)NCc2ccc3c(c2)OCO3)sc2nc(-c3ccc(F)cc3)cn12	12.1
Nc1nc(SCC(=O)Nc2ccccc2Oc2ccccc2)n[nH]1	4.67
Cc1ccc(S(=O)(=O)N(C)C)cc1NC(=O)C1Cc2ccccc2CN1C(=O)c1ccco1 (centres unmarked)	-9.91
CCN(CC)CCCNC(=O)CCc1ccccc1	-13.3
CC(C)=CC(=O)NCCc1ccccc1	-5.36
Cc1nc2ccccc2cc1C(=O)O	22.8
COc1ccc(CCNc2oc(-c3ccc(OC)c(OC)c3)nc2P(=O)(OC)OC)cc1OC	-22
